The results in this text go back to ChEMBL document CHEMBL1201862, “PubChem BioAssay data set” (2004).

Molecules are shown by their SMILES.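 In this assay, cells in 96-well plates receive the compound at five concentrations for 48 hours. Endpoints are linearly interpolated between the surrounding concentrations. GI50: concentration for 50% inhibition of growth.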 Calls of active or inactive are those of the source. No stated cut-off is given here; in the data, active = GI50 up to about 1.1 µM and inactive = higher.

The assay relates to NCI-H322M. Put plainly: NCI tumour cell line growth inhibition, 48 h.
On to `NC(=O)SCC(=O)Nc1ccc2ncccc2c1`, for which the GI50 is inactive: 83.9 µM.

With `O=C(O)CCNc1ccccc1C(=O)O`, the GI50 is inactive: 56.5 µM.

Consider `O=C(NC1CCCCC1)c1cc2ccccc2cc1O`, for which the GI50 is inactive: 49.8 µM.

In the case of `CCN1CCC(O)(/C=C/c2ccc(C)cc2)C(C(=O)/C=C/c2ccc(C)cc2)C1` (stereo unspecified), the GI50 is inactive: 13 µM.

As for `O=C(O)CSCc1cccc2ccccc12`, the GI50 is inactive: 65.8 µM.

For `COc1ccccc1NC(=S)N/N=C1\C(=O)Nc2ccccc21`, the GI50 was inactive: > 100 µM.

Consider `CC(NC(=O)C(NC(=O)CNC(=O)OC(C)(C)C)C(C)C)C(=O)Oc1c(Cl)c(Cl)c(Cl)c(Cl)c1Cl` (stereo unspecified), for which the GI50 is inactive: 25.2 µM.

Regarding `COc1ccc2c(c1OC)C1=C(C2=O)c2cc3c(cc2CCN1)OCO3`, the GI50 was inactive: 55.5 µM.

For `NS(=O)(=O)c1ccc(NC(=O)N/N=C/c2ccccc2[N+](=O)[O-])cc1`, the GI50 is inactive: 53.7 µM.

Consider `O=C(Cc1ccc(Cl)cc1)Nc1ccc2oc(-c3ccccc3)nc2c1`, for which the GI50 was inactive: 65 µM.

For the compound `O=C1c2cccnc2C(=O)c2c1nc1ccccc1c2-c1ccc2c3c(nc4ccccc42)C(=O)c2cccnc2-c13`, the GI50 was active: 0.729 µM.

Turning to `CC/C(C)=C1\OC(=O)C(C)C(O)C(Cc2cccnc2)NC(=O)C(NC(=O)c2ncccc2O)C(C)OC1=O` (stereo unspecified), the GI50 was inactive: 50.7 µM.

`Nc1cccc(C#Cc2cccc(C#Cc3cccc(N)n3)n2)n1`: the GI50 is inactive: > 100 µM.

In the case of `CC1=CC(C)C(C)N(CC2=NCCN2)c2ccccc21` (stereo unspecified), the GI50 was inactive: 52.6 µM.

Turning to `c1ccc(/C(=N/Nc2cnccn2)c2ncccn2)cc1`, the GI50 was inactive: 20.7 µM.

Take `COc1ccccc1/C=C(\C#N)c1ccccc1`: the GI50 was inactive: 45.3 µM.

`O=C1C(Cl)C2(CC(/C=C/c3cccs3)=NN2c2cccc(S(=O)(=O)O)c2)N1c1nc2ccccc2s1` (stereo unspecified): the GI50 was inactive: 83.6 µM.

Take `C=CCNC(=O)N(CCC)CCCCC(NC(C)=O)C(=O)NCc1ccccc1` (stereo unspecified): the GI50 was inactive: > 100 µM.

Turning to `Cc1ccc(OCC2OC(n3cnc4c(Cl)nc(N)nc43)CC2Oc2ccc(C)cc2)cc1` (stereo unspecified), the GI50 was inactive: 31.8 µM.

For the compound `CCN1CCC(O)(c2ccc([N+](=O)[O-])cc2)C(C(=O)c2ccc([N+](=O)[O-])cc2)C1` (stereo unspecified), the GI50 was inactive: > 100 µM.

For `O=[N+]([O-])c1ccc(-c2nc3cc(Cl)ccc3[nH]2)cc1`, the GI50 is inactive: > 100 µM.

Regarding `CC(=O)c1ccc2c(c1)oc(=O)n2CCN1CCCCC1`, the GI50 is inactive: > 100 µM.

Turning to `COc1ccc(C2c3c(n(C)c(=O)n(C)c3=O)OC(N(C)C)(N(C)C)C2(F)F)cc1` (stereo unspecified), the GI50 was inactive: > 100 µM.

Take `COc1ccccc1/C=C1\S/C(=N/Nc2nc(C)c(C(C)=O)s2)NC1=O`: the GI50 is inactive: 68.4 µM.

Take `CC(C)(C)NNc1c([N+](=O)[O-])cnn(-c2ccccc2)c1=O`: the GI50 was inactive: 11.1 µM.

As to `CCCc1nc(NC#N)nc(C(=O)NC23CC4CC(CC(C4)C2)C3)c1C`, the GI50 is inactive: > 100 µM.

As to `CCOC(=O)/C=C1\CCCC12OCCO2`, the GI50 is inactive: > 100 µM.

Turning to `CC1(C)OC2OC(COC(=O)c3ccc(C#N)cc3)C3OC(C)(C)OC3C2O1` (stereo unspecified), the GI50 is inactive: > 75 µM.

With `O=c1ccn(C/C=C/c2ccccc2)c(=S)n1C/C=C/c1ccccc1`, the GI50 is inactive: 96.8 µM.

Regarding `CC(C)(C)[Si](OC1CC(n2cnc3c(N)ncnc32)OC1CO)(c1ccccc1)c1ccccc1` (stereo unspecified), the GI50 is inactive: 19.5 µM.

In the case of `O=C1/C(=C\c2cccs2)Oc2ccccc21`, the GI50 is inactive: > 100 µM.

Take `CC1CC(N2CCOCC2)=Nc2ccccc2N1C` (stereo unspecified): the GI50 was inactive: > 100 µM.

For `CCOC1CCN(C(=O)c2ccccc2)O1` (stereo unspecified), the GI50 was inactive: > 10 µM.

For the compound `O=[N+]([O-])c1cc(Cl)ccc1S(=O)(=O)N1CCCc2cc(Cl)ccc21`, the GI50 was inactive: 43.4 µM.

On to `O=C1O/C(=C\c2ccc(O)c(Br)c2)C(c2ccc(O)c(Cl)c2)=C1Br`, for which the GI50 was inactive: 19.9 µM.

As for `O=C1C2c3[nH]c4ccccc4c3C3CCSCC3C2C(=O)N1c1ccccc1` (stereo unspecified), the GI50 was inactive: > 100 µM.

Turning to `O=P1(Cc2ccccc2)c2ccccc2-c2ccccc21`, the GI50 was inactive: 14.7 µM.

As for `Cc1ccc2c3c(cnc2n1)C(=O)OCCN3C`, the GI50 was inactive: > 100 µM.

In the case of `N#CC1(C#N)C2CCCCC23OC(=N)C1(C#N)C(c1ccccc1)O3` (stereo unspecified), the GI50 is inactive: 61.9 µM.

As to `C/C=N\n1c(C)c(C#N)c(C#N)c1N`, the GI50 was inactive: > 100 µM.

For the compound `CCCCCCCCCCCCCCCCCC(=O)OCC(COC(=O)CCCN)OC(=O)CCCN` (stereo unspecified), the GI50 was inactive: 17.4 µM.

For the compound `COC(=O)CCC(NC(=S)N/N=C/c1cccs1)C(=O)OC` (stereo unspecified), the GI50 was inactive: > 100 µM.

For the compound `NC(=O)CCC(Nc1c2ccccc2[n+]([O-])c2ccccc12)C(=O)O` (stereo unspecified), the GI50 is inactive: > 100 µM.

As to `C/C(=C/CC[C@](C)(OC1OC(CO)C(O)C(O)C1O)[C@H]1CC[C@]2(C)[C@@H]1CC[C@@H]1[C@@]3(C)CC[C@H](O)C(C)(C)[C@@H]3C[C@H](O)[C@]12CO)CO` (stereo partly specified), the GI50 is inactive: > 100 µM.

Consider `C/C(=N\NC(=S)N1CCC(C2CCN(C(=S)N/N=C(\C)c3ccccn3)CC2)CC1)c1ccccn1`, for which the GI50 was inactive: > 100 µM.

Turning to `CC[C@H](O)[C@H](C)C=C1SCCCS1`, the GI50 is inactive: > 100 µM.

`C[S+](C)C1(c2ccccc2)C(=O)c2ccccc2C1=O`: the GI50 is inactive: > 100 µM.

Turning to `Nc1c(Cl)c([N+](=O)[O-])cc2c1OCCCCO2`, the GI50 is inactive: > 100 µM.

`O=C(CCCN1CCC2(CC1)CC(=O)N(N1CCCCCC1)C2=O)c1ccccc1`: the GI50 is inactive: > 100 µM.

For the compound `CC(C)C1=C(O)C(=O)C2=C(C1=O)C(OC=O)C(O)C1C(C)(C)CCCC21C` (stereo unspecified), the GI50 is inactive: 10.2 µM.

On to `c1ccc2c(c1)nnn1c3cnccc3nc21`, for which the GI50 is inactive: 26 µM.

`CC(C)c1cccc(C(C)C)c1NC(=S)Nc1ccccc1`: the GI50 is inactive: > 100 µM.

On to `CCOC(=O)C(=Cc1cccnc1C)C(=O)OCC`, for which the GI50 was inactive: 10.2 µM.

With `CCC(/C(=N/NC(=O)C[N+](C)(C)C)c1ccccc1)C1OC(=O)c2ccccc21` (stereo unspecified), the GI50 is inactive: > 100 µM.

Turning to `O=S(=O)(CC(O)C(Cl)(Cl)Cl)NNc1ccccc1` (stereo unspecified), the GI50 was inactive: > 100 µM.

Take `COC(=O)C(CC(=O)c1c[nH]c2ccccc12)c1c[nH]c2ccccc12` (stereo unspecified): the GI50 was inactive: 20.3 µM.

Take `CCC1OC2C(CC=C(C)C)=C3OC(C)(O)C(C)(CC)C(OC(=O)c4ccccc4)C3=C3OC(=O)C=C1C32` (stereo unspecified): the GI50 was inactive: 46.8 µM.

As to `COc1ccc2c(C)cc(N/N=C/c3sccc3C)nc2c1`, the GI50 is active: 0.217 µM.

As for `CC1(C)[C@@H](Cn2cnc3c(O)nc(N)nc32)CC[C@@]1(C)CO`, the GI50 is inactive: > 100 µM.

`CSC[S+]([O-])C[C@H](CO)NC(=O)/C=C/c1c(C)[nH]c(=O)[nH]c1=O` (stereo partly specified): the GI50 is active: 0.521 µM.

For the compound `COc1cc2c(cc1OCCCN1CCOCC1)N=C[C@@H]1CCCN1C2=O`, the GI50 was inactive: 26.1 µM.
